In paper PMC6919601, “Identification of Plasmodium dipeptidyl aminopeptidase allosteric inhibitors by high throughput screening” (PLoS ONE, 2019):
Out of some 110,000 compounds screened, about 230 (0.21%) showed an effect of 50% or more. Some of the results follow.

target: DPAP1 (Plasmodium falciparum, UniProt Q8IIJ9); assay: primary screen, percent inhibition; read by cleavage of a fluorogenic dipeptide substrate; higher = more effect of the substance; set-up: species or system P. falciparum D10 trophozoite lysates; single well
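Note: 30 min substrate incubation versus DMSO and 10 µM JCP410 controls.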

Sequence of DPAP1 (Q8IIJ9 whole entry, looked up): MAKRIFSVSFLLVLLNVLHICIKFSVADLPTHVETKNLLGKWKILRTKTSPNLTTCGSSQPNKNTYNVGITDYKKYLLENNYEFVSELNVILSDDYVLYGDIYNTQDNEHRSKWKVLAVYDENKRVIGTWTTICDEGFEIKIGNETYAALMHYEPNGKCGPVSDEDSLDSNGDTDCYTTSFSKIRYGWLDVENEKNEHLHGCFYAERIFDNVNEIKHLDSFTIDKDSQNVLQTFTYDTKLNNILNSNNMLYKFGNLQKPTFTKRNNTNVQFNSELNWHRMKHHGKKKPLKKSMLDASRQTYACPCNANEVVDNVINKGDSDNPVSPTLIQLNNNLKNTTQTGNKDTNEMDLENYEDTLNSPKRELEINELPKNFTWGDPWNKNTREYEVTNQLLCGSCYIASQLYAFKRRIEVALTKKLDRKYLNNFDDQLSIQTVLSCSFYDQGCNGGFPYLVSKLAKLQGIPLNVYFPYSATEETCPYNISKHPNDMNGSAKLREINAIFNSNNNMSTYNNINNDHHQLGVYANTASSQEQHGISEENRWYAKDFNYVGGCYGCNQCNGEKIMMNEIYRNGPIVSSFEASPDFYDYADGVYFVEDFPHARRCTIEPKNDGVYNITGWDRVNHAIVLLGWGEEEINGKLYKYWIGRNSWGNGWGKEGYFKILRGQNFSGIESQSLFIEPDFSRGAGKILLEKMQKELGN

Going from N#Cc1ccc(Cn2cnc3ccccc32)cc1 to Cc1ccc(SCC(=O)Nc2ccccc2C#N)cc1, the “% Inhibition @ 10 uM” value falls from 0.454% to -7.34%.

Compared with Cc1ccccc1-c1nc2s/c(=C\C3=Cc4ccccc4OC3)c(=O)n2n1, CN(Cc1ccccc1)C(=O)Nc1noc2c1COc1ccccc1-2 is higher in “% Inhibition @ 10 uM” value: -2.98% for the first, -2.28% for the second.

Going from Cc1ccccc1C(=O)Nc1sc2c(c1C(=O)N1CCC(C)CC1)CCC2 to N#Cc1c(NC(=O)c2ccc3c(c2)OCO3)sc2c1CCCCC2, the “% Inhibition @ 10 uM” value rises from -0.339% to 2.69%.

First: Cc1ccc(Cl)cc1-n1c(C)cc(C=C2C(=O)NC(=O)NC2=O)c1C
Second: COC(=O)c1ccccc1-n1c(C)cc(/C=C2/NC(=O)N(Cc3ccccc3F)C2=O)c1C
The “% Inhibition @ 10 uM” value of the first is higher: 1.91% for the first, -1.81% for the second.

Compared with CC(C)CC(=O)NCCNC(=O)c1c(O)oc2ccccc2c1=O, CC(C)C[C@H](NC(=O)c1cc2ccccc2o1)C(=O)NCC#N is lower in “% Inhibition @ 10 uM” value: 1.7% for the first, -12.9% for the second.

Compared with Cc1ccc(Cn2c(C)c(CNCc3ccc(C)o3)c(C(=O)O)c2C)cc1, CC(=O)c1c(C(C)=O)c(C)n(Cc2ccc3c(c2)OCO3)c1C is higher in “% Inhibition @ 10 uM” value: -0.23% for the first, 3.54% for the second.

First: O=C(Cn1c(=O)c2cccn2c2cccnc21)NCCCN1CCC(Cc2ccccc2)CC1
Second: Cc1ccc(C2=NN(CC(=O)N3CCC(Cc4ccccc4)CC3)C(=O)CC2)cc1
The “% Inhibition @ 10 uM” value of the first is lower: 1.26% for the first, 3.79% for the second.

First: CC(=O)c1sc(N2N=C(c3ccccc3)CC2c2ccccc2)nc1C (stereo not shown)
Second: O=C1COc2ccc(C3=Nc4ccccc4SC(c4ccccc4)C3)cc2N1 (stereo not shown)
The “% Inhibition @ 10 uM” value of the first is higher: 4.26% for the first, 1.15% for the second.

Going from Cc1ccc(C2c3c(-c4ccccc4O)n[nH]c3C(=O)N2Cc2ccco2)cc1 (stereo not shown) to Cc1ccc(S(=O)(=O)/C(C#N)=C/c2c(Oc3ccc(C)cc3C)nc3ccccn3c2=O)cc1, the “% Inhibition @ 10 uM” value falls from 6.67% to -3.23%.

Compared with Cc1ccc(SCCC(=O)NC2CC2)cc1, Cc1ccc(C(=O)NC2=NC(=O)CC(CC(C)C)N2)cc1 (stereo not shown) is lower in “% Inhibition @ 10 uM” value: 1.94% for the first, -5.52% for the second.

First: CNC(=O)CN1C(=O)CSc2nc(C)cc(C)c21
Second: CCOC(=O)c1sc2ncnc(OC)c2c1C
The “% Inhibition @ 10 uM” value of the first is lower: -7.93% for the first, -0.631% for the second.

First: Cc1ccc(C)n1-c1ccccc1C1C=CN(C(=O)OC(C)(C)C)C=C1
Second: COc1ccccc1N1CCN(C(=O)CN(C)S(=O)(=O)c2ccc(C)cc2)CC1
The “% Inhibition @ 10 uM” value of the first is higher: -1.22% for the first, -4.43% for the second.

Compared with Cn1c(CCNC(=O)c2ccco2)nc2ccccc21, Cn1c(CO)nc2c3ccccc3ccc21 is lower in “% Inhibition @ 10 uM” value: 0.366% for the first, -5.82% for the second.

Compared with Cc1ccccc1CSCC(=O)Nc1ccccc1C(=O)NCC(C)C, CCc1cccc(C)c1NC(=O)Cc1ccccc1 is higher in “% Inhibition @ 10 uM” value: -8.49% for the first, 3.83% for the second.

Compared with CCOC(=O)c1cnc2c(C)cc(C)cc2c1NCc1ccccc1, CCOc1ccc(NC(=O)c2cc3c(ccc4ccccc43)o2)cc1 is lower in “% Inhibition @ 10 uM” value: 2.17% for the first, -2.88% for the second.

Compared with O=C(Cn1ncc2c3ccccc3n(Cc3ccccc3F)c2c1=O)NCc1ccccn1, CCCn1c2ccccc2c2cnn(CC(=O)NCCC(C)C)c(=O)c21 is higher in “% Inhibition @ 10 uM” value: 1.8% for the first, 2.59% for the second.

Going from Cc1ccc(C(=O)NC(=S)NCCc2ccccc2)cc1 to O=C(CCn1nc(-c2ccccc2)ccc1=O)NCCc1ccccc1, the “% Inhibition @ 10 uM” value falls from 1.74% to -3.58%.

Going from CCCCC1NC(C(=O)O)Cc2c1[nH]c1ccccc21 (stereo not shown) to CCCCSc1nnc2c(n1)[nH]c1ccccc12, the “% Inhibition @ 10 uM” value rises from -9.55% to 2.86%.

Compared with COc1ccccc1/C=C1\C(=O)NC(=O)N(c2ccccc2)C1=O, CCOc1ccccc1/C=C1\N=C(c2ccccc2OC)OC1=O is higher in “% Inhibition @ 10 uM” value: -2% for the first, 6.56% for the second.

Compared with O=C(NCCC1=CCCCC1)C(Cc1ccccc1)N1Cc2ccccc2C1=O (stereo not shown), CSCCC(C(=O)Nc1ccccc1)N1C(=O)c2ccccc2C1=O (stereo not shown) is higher in “% Inhibition @ 10 uM” value: -1.34% for the first, 4.11% for the second.

Going from CC(C)(C)c1ccccc1OCCCCCN1CCNCC1 to COc1ccc(OC)c(CN2CCN(Cc3c[nH]c4ccccc34)CC2)c1, the “% Inhibition @ 10 uM” value rises from -4.5% to -4.01%.

Compared with Cc1cc(NC(=O)COc2ccccc2C)ccc1NC(=O)c1cccs1, CCC(=O)NC(c1cccs1)c1ccc2ccccc2c1O (stereo not shown) is higher in “% Inhibition @ 10 uM” value: -3.85% for the first, 5.75% for the second.

Going from O=C(OCCC1(c2ccccc2)C(=O)c2ccccc2C1=O)c1ccc([N+](=O)[O-])cc1 to COc1ccc(-c2noc(CCCN3C(=O)c4ccccc4C3=O)n2)cc1, the “% Inhibition @ 10 uM” value rises from -0.415% to 2.31%.

Compared with COc1cc(C)nc(N(Cc2ccccc2)S(=O)(=O)c2ccccc2)n1, COc1ccc(-c2cc(=O)c3ccccc3n2C)cc1 is lower in “% Inhibition @ 10 uM” value: 5.03% for the first, -5.1% for the second.

First: Clc1ccc(CN2CCN(Cc3ccc4c(c3)OCO4)CC2)cc1Cl
Second: O=C1S/C(=C\c2ccc3c(c2)OCO3)C(=O)N1Cc1ccc(F)cc1
The “% Inhibition @ 10 uM” value of the first is higher: 1.4% for the first, -4.82% for the second.

Compared with CCCn1c(=N)c(C(=O)NCCCOC)cc2c(=O)n3cc(C)ccc3nc21, CCCCNC(=O)c1sc2nc(-c3ccc(OC)cc3)cn2c1C is higher in “% Inhibition @ 10 uM” value: -1.47% for the first, 1.55% for the second.

First: COc1ccc(C2C(C(=O)N3CCC(C)CC3)c3ccccc3C(=O)N2C)cc1 (stereo not shown)
Second: COc1ccc2ncc(S(=O)(=O)c3ccc(C)cc3)c(N3CCCC(C)C3)c2c1 (stereo not shown)
The “% Inhibition @ 10 uM” value of the first is lower: -2.9% for the first, -1.69% for the second.

First: Cc1ccc(S(=O)(=O)CCC(=O)O)cc1C
Second: Cc1ccc(NC(=O)c2ccc(Br)o2)cc1C
The “% Inhibition @ 10 uM” value of the first is higher: 1.63% for the first, -4.86% for the second.

First: CC(C)N1C/C(=C/c2ccc(Br)o2)C(=O)/C(=C/c2ccc(Br)o2)C1
Second: Cc1nn(CC(=O)NC(C)CCc2ccccc2)c(=O)c2cc3sccc3n12 (stereo not shown)
The “% Inhibition @ 10 uM” value of the first is higher: 7.57% for the first, 1.8% for the second.

First: CC1(C)CC(=O)C2=C(C1)N(Cc1ccccc1)C(=O)NC2(C(F)(F)F)C(F)(F)F
Second: COc1ccccc1C(=O)NC1(C(F)(F)F)C(=O)N(CC(C)C)C2=C1C(=O)CC(C)(C)C2 (stereo not shown)
The “% Inhibition @ 10 uM” value of the first is higher: 1.91% for the first, -6.36% for the second.

First: COc1ccc(-c2onc(C)c2C)cc1S(=O)(=O)N1CCN(c2ncccn2)CC1
Second: O=S(=O)(NCC1CCCO1)c1ccc(S(=O)(=O)N2CCN(c3ncccn3)CC2)cc1 (stereo not shown)
The “% Inhibition @ 10 uM” value of the first is lower: -7.66% for the first, -2.92% for the second.

Compared with O=S(=O)(NCCc1cccs1)c1ccc(-c2cc(C(F)(F)F)no2)s1, CCCN(CCC)S(=O)(=O)c1ccc(C(=O)Nc2cccc(C)c2)cc1 is higher in “% Inhibition @ 10 uM” value: -3.61% for the first, 3.53% for the second.

Going from CC1CN(Cc2nc3c(c(=O)n(C)c(=O)n3C)n2CCCO)CC(C)O1 (stereo not shown) to COc1ccc(OC)c(CN2CC(C)OC(C)C2)c1 (stereo not shown), the “% Inhibition @ 10 uM” value rises from -3.23% to 0.215%.

First: O=C1NC(=S)S/C1=C\c1ccc(C(=O)O)cc1
Second: Cc1ccc2c(O)c(C(=O)c3ccc(Cl)cc3)cnc2n1
The “% Inhibition @ 10 uM” value of the first is lower: -6.22% for the first, -3% for the second.

Going from CCSc1cnc(-c2ccccc2)n1CC to N#Cc1cc2c(nc1SCC(=O)c1ccccc1)CCCC2, the “% Inhibition @ 10 uM” value rises from -1.2% to 7.76%.

Compared with Cc1nn(CC(=O)NCCc2ccc(Cl)cc2)c(=O)c2c1sc1ccccc12, COCc1cc(C)n(CC(=O)Nc2cccc3ccccc23)c(=O)c1C#N is lower in “% Inhibition @ 10 uM” value: 2.8% for the first, -2.77% for the second.

First: CCOc1ccc(OCC(=O)Nc2ccccc2F)cc1
Second: CCc1ccc(OCC(O)CN2CCN(c3ccccc3)CC2)cc1 (stereo not shown)
The “% Inhibition @ 10 uM” value of the first is lower: -11.5% for the first, -0.261% for the second.

Going from O=S(=O)(c1cnccc1N1CCN(CCO)CC1)N1CCCCC1 to Fc1ccccc1CN1CCN(c2ncccn2)CC1, the “% Inhibition @ 10 uM” value rises from -5.21% to 1.55%.

First: CC(C)CCNC(=O)c1nnc(-c2cccnc2)o1
Second: CC(C)C[C@H](NC(=O)c1ccc2ncccc2c1)C(=O)NCC#N
The “% Inhibition @ 10 uM” value of the first is lower: 2% for the first, 10.2% for the second.

First: COc1cc(OC)c(C2C(C#N)=C(N)N(c3ccc(F)cc3)C3=C2C(=O)CCC3)cc1OC (stereo not shown)
Second: COc1ccc(C2CC(c3ccc(Cl)cc3)=NN2c2cccc(C(F)(F)F)c2)c(OC)c1 (stereo not shown)
The “% Inhibition @ 10 uM” value of the first is higher: 14.8% for the first, 5.53% for the second.

Going from CCN1c2cccc3cccc(c23)S1(=O)=O to CCOC(=O)c1noc2c1COc1ccccc1-2, the “% Inhibition @ 10 uM” value rises from -2.12% to -1.51%.

Compared with COCCN1C=C(C(=O)OC)C(c2cc(OC)c(OC)c(OC)c2)C(C(=O)OC)=C1, CCc1nnc(NC(=O)Cc2coc3c(C)c(C)ccc23)s1 is higher in “% Inhibition @ 10 uM” value: -5.01% for the first, 2.62% for the second.

First: COC(=O)CCc1sc2c(c1[N+](=O)[O-])NC(=O)CCC2
Second: O=c1oc(-c2ccccc2Cl)nc2sc3c(c12)CCC3
The “% Inhibition @ 10 uM” value of the first is lower: -7.35% for the first, -3.27% for the second.

Going from CCCNC(=O)C1CC(c2ccc(OC)cc2)=NO1 (stereo not shown) to CCc1ccc(-c2nc(CN3CCCC(C(=O)NC4CC4)C3)c(C)o2)cc1 (stereo not shown), the “% Inhibition @ 10 uM” value falls from -0.0115% to -4.71%.

Compared with Cc1nnn(C23CC4CC(CC(C(=O)NC(C)c5ccccc5)(C4)C2)C3)n1 (stereo not shown), O=C(NC(Cc1ccccc1)C(=O)O)c1cccnc1Cl (stereo not shown) is higher in “% Inhibition @ 10 uM” value: 1.49% for the first, 11.8% for the second.

Compared with CC(C)(C)C1(O)C(=O)Nc2ccccc21 (stereo not shown), CC1CN(Cc2ccccc2[N+](=O)[O-])CC(C)O1 (stereo not shown) is higher in “% Inhibition @ 10 uM” value: -2.74% for the first, -2.36% for the second.

First: COc1ccc(-c2cc(-c3ccc(OC)cc3)c3c(N)c(C(N)=O)sc3n2)cc1
Second: CCCCc1ccc2nc3sc(C(=O)O)cc3cc2c1
The “% Inhibition @ 10 uM” value of the first is higher: 19.8% for the first, -3.13% for the second.

First: c1nc(N2CCCCCC2)c2c3c(sc2n1)CCCCC3
Second: O=C1CC(Cc2ccc(Cl)cc2)C(=O)N1C1CCCCC1 (stereo not shown)
The “% Inhibition @ 10 uM” value of the first is higher: 5.55% for the first, -6.7% for the second.

First: CCc1[nH]nc2c1C(C1CCCCC1)C(C#N)=C(N)O2 (stereo not shown)
Second: O=C1/C(=C/c2ccccc2F)CCC1C1CCCC1 (stereo not shown)
The “% Inhibition @ 10 uM” value of the first is lower: -0.68% for the first, 27.4% for the second.

Going from CCC(C)NC(=O)CCC(=O)n1ncc2cc(Cl)ccc21 (stereo not shown) to Cc1ccc2oc(=O)c3cnn(CC(=O)N4CCCCC4C)c3c2c1 (stereo not shown), the “% Inhibition @ 10 uM” value rises from -4.68% to -0.0115%.

First: Cc1ccc2c(Cl)c(C(=O)N3CCN(C)CC3)sc2c1
Second: O=C(/C(=C/c1cccnc1)n1cncn1)c1ccc(Cl)cc1Cl
The “% Inhibition @ 10 uM” value of the first is lower: -3.85% for the first, -1.71% for the second.

CCCNC(=O)c1ccc(CSc2nc3ccncc3[nH]2)cc1 was tested, and the “% Inhibition @ 10 uM” value was 3.4%.
